Target: T1, recombinant human TIGIT protein (Acrobiosystems) (human, UniProt Q495A1 22-141)
T1 construct: Bought recombinant protein; NP_776160.2; UniProt Q495A1-1
T1 sequence: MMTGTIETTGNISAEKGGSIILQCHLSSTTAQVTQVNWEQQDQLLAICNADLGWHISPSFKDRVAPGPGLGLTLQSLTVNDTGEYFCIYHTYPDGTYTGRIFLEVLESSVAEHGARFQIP
Assay: ELISA, plate coated with recombinant human TIGIT at 1 ug/ml, serial 1:3 dilutions from 61.097 nM, detection with anti-mouse/human IgG-HRP, OD 450 nm
Description: An ELISA plate was coated with recombinant human TIGIT protein (Acrobiosystems, China) at a concentration of 1 μg/ml dissolved in PBS (Phosphate-Buffered Saline) and incubated overnight at 4° C. The plate was blocked with blocking buffer (3% (v/v) skim milk in PBS) for 1 hour, and serially diluted anti-TIGIT monoclonal antibody (7A6) and the fusion protein ([7A6]-[TL-2]-[IL-15]; denoted as ‘7A615TL-2’) (starting concentration: 61.097 nM; serial 1:3 dilutions) were added to the coated plate. After incubation, anti-mouse/human IgG-HRP antibody (Abcam: 1:10000 dilution) was added to each well. The plate was developed with TMB solution and stopped with 1N HCl. The OD value was read at 450 nm using the GloMax® Explorer Fully Loaded.

EC50 (read off the curve): ~1 nM
B1: 7A615TL-2 fusion protein ([7A6]-[TL-2]-[IL-15]) (other)
heavy: QVQLQESGPGLVKPSQTLSLTCTVTGYSITSDYAWNWIRQPPGKGLEWMGYISYSGSARYNPSLKSRVTISRDTSKNQFSLKLSSVTAEDTATYYCARKGYPAYFAYWGQGTLVTVSSASTKGPSVFPLAPSSKSTSGGTAALGCLVKDYFPEPVTVSWNSGALTSGVHTFPAVLQSSGLYSLSSVVTVPSSSLGTQTYICNVNHKPSNTKVDKRV[human IgG1 Fc not listed]
light: DIQMTQSPSSLSASVGDRVSITCKASQDVSTAVAWYQQKPGQAPRLLIYSASYRYTGVPDRFSGSGSGTDFTLTISSLQPEDFATYYCQHHYSTPYTFGQGTKLEIKRTVAAPSVFIFPPSDEQLKSGTASVVCLLNNFYPREAKVQWKVDNALQSGNSQESVTEQDSKDSTYSLSSTLTLSKADYEKHKVYACEVTHQGLSSPVTKSFNRGECEAAAKEAAAKEAAAK[about 120 residues not listed]
notes: Anti-TIGIT IgG1/kappa antibody 7A6 (VH3/Vk5) with wild type IL-15 fused to the C-terminus of each light chain through the rigid linker V-2 (EAAAK)3; also called TIGIT mAb-(LC-(EAAAK)3-IL-15)2
